The list shows a part of the results.

The test system of the assay is PF3D7_0420300 AP2 domain 1 (GST-tagged). Nature of the assay: gcPBM binding intensity (ln(normalized median fluorescence intensity)); higher = stronger DNA binding. In a few lines:
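An Agilent 4 × 180k array of primer-extended double-stranded 36-bp intergenic genomic probes, with negative controls, was incubated for 1 h with GST-tagged P. falciparum DNA-binding domains expressed in E. coli. Alexa488 anti-GST antibody detected bound protein, scanned at 488 nm. Binding intensity is the highest Masliner-normalised natural-log median intensity across replicate spots of either probe orientation.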
With “TGTGAAAATTATGGGGCATGCAATACTTTAAAAATA [TGCATGCA_site653]”, the “gcPBM binding intensity (ln)” value came to 9.3.

As to “TTTTGGCTGATCAGATTTAACAAAAAAAAAAAAAAA [CACACA_negctrl_site671]”, the “gcPBM binding intensity (ln)” value worked out at 8.58. In the case of “CAAATATATATTTTCTGTACAAATACAATTAATACT [XGTACX_site2694]”, the “gcPBM binding intensity (ln)” value was found to be 9.13. The figure for “CCTTCAATTTACATAACACACATTTAACCATAATAA [CACACA_site2394]” is 9.37.

In the case of “GACACCTGCATGAAAGTGCAAAATAGAAAAGGAACA [GTGCAC_site9593]”, the “gcPBM binding intensity (ln)” value was found to be 9.31. The figure for “TTACCTCTTTGAAATATACACACTAAACATATCAAC [CACACA_site2455]” is 9.4. As to “AAGGAATAATAATAAATGTAAAGAAAAGCATACTGA [CACACA_negctrl_site36]”, the “gcPBM binding intensity (ln)” value stood at 9.5.

As for “AAATACCTTATATATACACACTATGTTTTTCTTTTT [CACACA_site4792]”, the “gcPBM binding intensity (ln)” value amounted to 9.63. Turning to “AACACGCACAGACACACACACAAAAATGATTAAAAA [CACACA_site7195]”, the “gcPBM binding intensity (ln)” value is 9.67. Consider “AAAAGAAGAAACAAAACACACACAGTCTTCTTTTCT [CACACA_site9015]”, for which the “gcPBM binding intensity (ln)” value turned out to be 9.81.

Regarding “TTTATGAGGTTACTATGTACGCAAATTATGTAATAA [XGTACX_site325]”, the “gcPBM binding intensity (ln)” value was 9.09. In the case of “ATTTGTGTTATTCGAAGTACGGATCATTTGAAATAA [XGTACX_site2510]” it was 9.1; in that of “TCAAATTATTAAAATACACACATATTATATATATAT [CACACA_site2530]”, 9.25; in that of “AGCAATTTGGGGTGTACACACACCTTATTTAAATTA [CACACA_site1157]”, 9.35. The figure for “TCGAACGTATCATGTGTACACACAAATTGTTTTTTT [CACACA_site8623]” is 9.69; for GTATAAAAGTAACTAGTGCATTACATATGAATAAAA it is 9.33; for “CCTTGCCCCAGGAGTTCACACACATAATAGATTGTC [CACACA_site8138]” it is 9.67. Regarding “AGATATTTTTCTTAAGTACACACTAATTAGAAACTA [CACACA_site7897]”, the “gcPBM binding intensity (ln)” value is 9.18.

Turning to “TTTTTATTTTAAAAGAATAATTATCTAATATCTATA [CACACA_negctrl_site371]”, the “gcPBM binding intensity (ln)” value turned out to be 8.82.

In the case of “TATTTTTAACAGTGCACACATAACTTAATTATATGT [CACACA_site2194]”, the “gcPBM binding intensity (ln)” value came out at 9.3. In the case of “GTGCATAAATCATACACACACACATATATATATATA [CACACA_site2423]” it was 9.96. In the case of “ATAAAAATAAAAAAAACACACATACCTTATTTTTGT [CACACA_site5452]” it was 9.73; in that of “GAAAGAAAATATTAAGTGCATATTTTAATGATACAA [GTGCAC_site9712]”, 9.19; in that of “ATTTTCCATATATTTTGTACATATGTATATTTTCCC [XGTACX_site7795]”, 9.61. The figure for “TATAAAAAATTATGTTGTACGTAATATAAAATTTGT [XGTACX_site7122]” is 9.24; for “AATCAAAATAAATTAACACACAATTTTAATATTGTT [CACACA_site10]” it is 9.17.

As to “AAATATAAATGGTAATACACATACACACACACATAC [XGTACX_negctrl_site459]”, the “gcPBM binding intensity (ln)” value was 10.2. In the case of “TATATCTCTTTATTCACACATACGTTTTAAAATAAT [CACACA_site5542]” it was 9.27; in that of “TATAAATAAAGACACACACACACACCGTATAATTAC [CACACA_site7829]”, 10.2; in that of “TAATAAAACATATATACACACATTAGATATACATAT [CACACA_site6897]”, 9.81. Consider “TTCCCAACATGATATTGTACATTTAATTATAATTAA [XGTACX_site7029]”, for which the “gcPBM binding intensity (ln)” value was 9.33. The figure for “ATATTATTAATTTGTTGTACAGTTCTTTATTTATAG [XGTACX_site7932]” is 9.52; for “TATATGTTTGAATATACACACAACATATATATATAT [CACACA_site4066]” it is 9.38. In the case of “TATATTAAAAAAAAATGTACACATATATATATATAT [XGTACX_site4524]” it was 9.07; in that of “CCAGGAAAAATTTATTGTACATATATTTTTATGCTC [XGTACX_site7154]”, 8.96; in that of TATTTTTGGTTATGTGTGCACTATGAACAACAAAAT, 9.31. For “ATTTTTTTATAAAATTTTTATATATTATATAAATAT [GTGCAC_negctrl_site163]”, the “gcPBM binding intensity (ln)” value worked out at 9.01. In the case of “TAAAAATAGTATACAACACACGAGGGAAAATAAAGT [CACACA_site3837]” it was 10.2; in that of “AAATGTATAATATTTTCACACACAAGAAAAAAGAAA [CACACA_site9195]”, 9.7. The figure for GCCAATAAAGATGTGGTGCATTATATATATATATAT is 9.26; for “TATCGAGCACGGCGTGTGGAGTTACAAAGAGGAGAA [CACACA_negctrl_site40]” it is 9.32; for “AGAAATGAAATATACACACATACATATATACATATA [CACACA_site4033]” it is 9.73.

In the case of “ACCCTCATATTATAGACACACACAAAAAAAATAAAA [CACACA_site7941]”, the “gcPBM binding intensity (ln)” value was 9.73. In the case of “TAAATACACCCTAGACGTACATAAAAATTTAGTATG [XGTACX_site2512]” it was 9.28; in that of “ATTAATAATGAGTTATGTACATACATATTTTAAGAT [XGTACX_site7543]”, 9.14; in that of “CTTCTTATTTTCTAATGTACGTACAAATCATTTATA [XGTACX_site2176]”, 9.31. In the case of “ATATTTATATATATGTGTACATATAGAAACATAAAA [XGTACX_site4355]” it was 9.2. In the case of “TGTCCTTATGGGCACACACACATATAAGAAATTTAA [CACACA_site3187]” it was 9.56. With AAAAACAAACTGTGCATGCACCAAAAAAAAAAAAAA, the “gcPBM binding intensity (ln)” value was 9.35. The figure for “TTTTTTTTTTTAATTTGTACGAATCTTTTTATTTTA [XGTACX_site4516]” is 9.1; for “CTTTCATATGTTTTAACACACACGCATATATTATAT [CACACA_site8615]” it is 9.74. The figure for “TTTTTTTTTTTGATTTGTACACAAAAAAAATATATG [XGTACX_site4547]” is 8.95; for “TTTTTTTTTTTTTTTTGTACATATTTTTAAACTATA [XGTACX_site2897]” it is 8.72; for “TTTTTTTTTTGATGTTGTACATATATATTATATATA [XGTACX_site6377]” it is 9.36.

In the case of “AGATATATGGACGACTCACACATTTAAATTCATTCA [CACACA_site6047]”, the “gcPBM binding intensity (ln)” value was found to be 9.28. Consider “ATAAACAATTAACAAACATGCAAATTTTAAATGTGT [TGCATGCA_site919]”, for which the “gcPBM binding intensity (ln)” value came to 9.51.

With “ATTTATTTGTTTGTTTTTTTTACGATTTTTATTTTT [CACACA_negctrl_site1138]”, the “gcPBM binding intensity (ln)” value was 9.76.

(Values after the supplement of paper PMC11417369.)
